The supplement of paper PMC5919970
Structures can show the parent of a compound that is named as a salt. Over roughly 2,000 compounds, “fractional viability relative to vehicle” has its median near 0.91; the lowest 2% begin near 0.045. The list shows a part of the results.

Test system: TYKNU
Assay: fractional viability relative to vehicle; TYKNU is a high-grade serous ovarian cancer line; higher = less growth inhibition
Settings: 72 h
Summary of the method: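 Drug treatment lasted 72 h, with cells grown at 37 °C in 5% CO2 in RPMI 1640 supplemented with 10% FBS. Beforehand, TYKNU control cells or their lentiCRISPRv2 knockout derivatives had been seeded at 500 cells per well into drug-stamped 384-well plates carrying a ~2100-compound library at 2 or 10 μM, in duplicate. Viability came from Cell Titer Glo luminescence, with averaged duplicate treatment wells normalised to duplicate control wells in the same plate position.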

[1] = 2uM, genotype: DNM1L knockout (sgDNM1L #1)
[2] = 2uM, genotype: sgCTRLA1 (non-targeting control)
[3] = 10uM, genotype: DNM1L knockout (sgDNM1L #1)
[4] = 10uM, genotype: sgCTRLA1 (non-targeting control)

SMILES	fractional viability [1]	fractional viability [2]	fractional viability [3]	fractional viability [4]
CCS(=O)(=O)N1CCC([C@@H](C)n2c(C)c(C(=O)NCc3c(OC)cc(C)[nH]c3=O)c3ccccc32)CC1	0.746	0.93	0.908	0.836
O=S(=O)(N=Cc1c(O)ccc2ccccc12)c1cccs1	0.71	0.953	0.696	0.77
Cc1c(OCC(F)(F)F)ccnc1C[S+]([O-])c1nc2ccccc2[nH]1 (stereo unspecified) [Lansoprazole]	1	1.02	1.01	0.939
O=C1CCc2c(ccc3ccccc23)O1 [Splitomicin]	0.823	0.967	0.757	0.792
CC[C@@H]1C(=O)N(C)c2cnc(Nc3ccc(C(=O)NC4CCN(C)CC4)cc3OC)nc2N1C1CCCC1	0.505	0.481	0.092	0.116
COc1ccc2cc1Oc1ccc(cc1)C[C@H]1c3c(cc4c(c3Oc3cc5c(cc3OC)CCN(C)[C@@H]5C2)OCO4)CCN1C [Cepharanthine]	0.788	0.904	0.105	0.0947
NC1=N[C@@]2(c3cc(NC(=O)c4ccc(F)cn4)ccc3F)COC[C@H]2CS1	1.19	1	1.11	0.986
OCC(O)CN1CCN(c2ccccc2)CC1 (stereo unspecified) [Dropropizine]	0.973	1.07	0.996	1.17
COc1ccccc1N1CCN(CCN2C(=O)CC3(CCCC3)CC2=O)CC1	0.889	1.11	0.882	1.05
CN(C)CCC(c1ccc(Cl)cc1)c1ccccn1 (stereo unspecified) [Chlorpheniramine Maleate]	0.949	0.963	0.945	0.918
CCC(=O)NCC[C@@H]1CCc2ccc3c(c21)CCO3 [Ramelteon]	1.04	1.09	0.92	1.12
COC1=CC(=O)C[C@@H](C)[C@]12Oc1c(Cl)c(OC)cc(OC)c1C2=O [Griseofulvin]	1.2	1.25	0.442	0.647
CC(C)(C)c1cc(/C=C(\C#N)C(N)=S)cc(C(C)(C)C)c1O [Tyrphostin AG 879]	1	1.01	0.322	0.432
COc1ccc(-c2coc3cc(O)cc(O)c3c2=O)cc1 [Biochanin A]	1.06	1.04	0.968	1.05
O=S(=O)(NCCNC/C=C/c1ccc(Br)cc1)c1cccc2cnccc12	0.892	1.01	0.733	0.821
NS(=O)(=O)NCCNc1nonc1/C(=N/O)Nc1ccc(F)c(Br)c1	0.886	0.972	0.788	0.722
O[C@@H](COc1cccc2ncccc12)CN1CCN(C2c3ccccc3[C@@H]3[C@H](c4ccccc42)C3(F)F)CC1 (stereo partly specified)	0.948	0.961	0.386	0.769
O=CN1CC/C(=C/c2ccc3c(c2)OCO3)C1=O	0.723	0.973	0.78	0.692
O=C(NC1CCNCC1)c1n[nH]cc1NC(=O)c1c(Cl)cccc1Cl	0.29	0.247	0.31	0.266
CC(C)c1noc(N2CCC(COc3ccc(-c4ccc(S(C)(=O)=O)cc4)nc3)CC2)n1	1.06	1.08	0.932	1.07

SMILES	fractional viability [1]	fractional viability [2]	fractional viability [3]	fractional viability [4]
CC[C@H](Nc1ncnc2[nH]cnc12)c1nc2cccc(F)c2c(=O)n1-c1ccccc1 [CAL-101 (Idelalisib, GS-1101)]	0.947	1.11	0.863	0.971
CCCC(CCC)C(=O)O [Divalproex Sodium]	0.974	1.13	0.957	1.1
CCCC(CCC)C(=O)O [Valproic acid sodium salt (Sodium valproate)]	1.03	1.08	0.897	1.15
CN(C)[C@@H](CCOc1cccc2ccccc12)c1ccccc1 [Dapoxetine HCl]	0.944	1.07	0.678	0.851
CNC(=O)c1ccc(N2C(=S)N(c3cnc(C#N)c(C(F)(F)F)c3)C(=O)C23CCC3)cc1F	1.03	1.19	0.814	0.957
O=C(c1ccc(OCCN2CCCCC2)cc1)c1c(-c2ccc(O)cc2)sc2cc(O)ccc12 [Raloxifene HCl]	1.09	0.991	0.712	0.651
CCOc1cc(N2CCC(O)CC2)ccc1Nc1ncc2c(n1)N(C)c1ccccc1C(=O)N2C	0.651	0.842	0.539	0.531
Cc1ccc(NC(=O)Nc2cc(C(F)(F)F)ccc2F)cc1Nc1ccc2c(c1)NC(=O)/C2=C\c1ccc[nH]1	0.873	0.905	0.918	0.825
CNC(=O)c1ccccc1Sc1ccc2c(/C=C/c3ccccn3)n[nH]c2c1 [Axitinib]	0.904	0.849	0.563	0.549
Fc1ccc2[nH]ccc2c1-c1nc(N2CCOCC2)c2sc(CN3CCN(CC4CC4)CC3)cc2n1	0.883	0.947	0.634	0.711
CC(CN1c2ccccc2Sc2ccccc21)N(C)C (stereo unspecified) [Promethazine HCl]	0.872	0.945	0.667	0.956
CCOC(=O)C1=C(C)NC(C)=C(C(=O)OC)C1c1cccc([N+](=O)[O-])c1 (stereo unspecified) [Nitrendipine]	0.977	1.1	0.721	0.945
COC1(c2sc3c(N4CCOCC4)nc(-c4cnc(N)nc4)nc3c2C)COC1	0.138	0.183	0.15	0.117
COc1ccc(-n2nc(C(N)=O)c3c2C(=O)N(c2ccc(N4CCCCC4=O)cc2)CC3)cc1 [Apixaban]	1.02	1.05	0.992	1.07
COc1ccc(C(C)=O)c(O)c1 [Paeonol]	0.904	1.08	0.775	1.11
CC(C)[C@H]1CC[C@H](C(=O)N[C@H](Cc2ccccc2)C(=O)O)CC1 [Nateglinide]	1.01	0.99	0.838	0.991
Nc1cccc(-c2cc3c(Oc4cccc(O)c4)ncnc3[nH]2)c1	1.03	1.24	0.436	0.462
COc1c(O)cc2c(c1O)[C@@H]1O[C@H](CO)[C@@H](O)[C@H](O)[C@H]1OC2=O [Bergenin]	0.911	1.15	0.973	1.04
CC(C)c1nc(CN(C)C(=O)N[C@H](C(=O)N[C@@H](Cc2ccccc2)C[C@H](O)[C@H](Cc2ccccc2)NC(=O)OCc2cncs2)C(C)C)cs1 [Ritonavir]	0.99	1.17	0.822	1.07
